The other results are listed elsewhere or left out.

The chains are these.
T1: UNK ZnF1-6 (called full-length) (human, UniProt Q9C0B0 30-357)
T1 sequence: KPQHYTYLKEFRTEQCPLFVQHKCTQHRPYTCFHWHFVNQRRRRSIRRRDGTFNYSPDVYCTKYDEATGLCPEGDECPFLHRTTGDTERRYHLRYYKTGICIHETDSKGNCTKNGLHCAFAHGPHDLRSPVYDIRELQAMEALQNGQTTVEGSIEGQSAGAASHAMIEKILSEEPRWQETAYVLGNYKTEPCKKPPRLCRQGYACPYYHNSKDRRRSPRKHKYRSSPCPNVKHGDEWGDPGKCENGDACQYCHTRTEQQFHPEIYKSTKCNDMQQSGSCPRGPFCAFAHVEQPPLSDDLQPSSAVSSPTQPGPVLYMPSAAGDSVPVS

B1: chr10:131092390:131093161:-|three_prime_utr|ENSG00000176769|control|control|control (ssRNA)
RNA: GGGAGUUCUACAGUCCGACGAUCGUGAAUUACUUCGUUUCUCCAGGAUUCCCGCAGUGUUGAGGAAUUCCUUACUCUGUCCCUAGGUCUCAGUCUCGUUUCUGAGUAGCAGCAAUAGGGUUUUCAUCAUUCAUCAUAGUGACACAACAGAGGAUUGAGCAUCA
B2: ENSG00000198589:be:win_551|CDS|ENSG00000198589|bound_else_gene|NA|bound_elsewhere_windowed (ssRNA)
RNA: GGGAGUUCUACAGUCCGACGAUCCUCCACAUGCUGGGAAGUUGCUGUCUGUGUUAAAGCAUAUGCCUCAGAAGUAUGGUCCUGAUGCCUUUUUUAACUUUCCAGGAAAGAGUGCUGCAGCUAUUGCAUUACCUCCUAUAGCCACAACAGAGGAUUGAGCAUCA
B3: chr10:87814449:87814585:-|CDS|ENSG00000138138|unk|total|mutant (ssRNA)
RNA: GGGAGUUCUACAGUCCGACGAUCUUUAAUUUUCCGUUUGACAAUAUUUGGUGCAGUGACAUACUUUACUAUCAAAUGGAUGGCCGAUGCAAUUGAUCCAACCAGAAAGCAAAAAGCCGAAGCUCAGAAACAGGUAUGAUUGAACAACAGAGGAUUGAGCAUCA
B4: chr15:65118290:65118391:-|3pUTR|ENSG00000090470|msi1|FALSE|unique (ssRNA)
RNA: GGGAGUUCUACAGUCCGACGAUCACUUCCUUGUGUGUUGAUGGGUAAGUACACUCAAACACUGAAUACAGGUGUGUGAUGGGUAGAUUUCACAGCCCUUCUACUAAUAGUGAGUGUGAAGGCAAGCUUGAUGCAAAACCUCCUCAACAGAGGAUUGAGCAUCA
B5: ENSG00000198589:be:win_201|CDS|ENSG00000198589|bound_else_gene|NA|bound_elsewhere_windowed (ssRNA)
RNA: GGGAGUUCUACAGUCCGACGAUCAACUGUCUUUAACCUGUUGGUAGGAGGACAGUUUGAUCUGGAAAUGAAUUUCAUUAUCCAAGAAGGUGAGAGUAUUAACUGCAUGGUGGACCUACUGGAAAAAUGUGACAUUACGUGCCACAACAGAGGAUUGAGCAUCA
B6: chr8:122953881:122953982:+|CDS|ENSG00000178764|msi1|total|mutant (ssRNA)
RNA: GGGAGUUCUACAGUCCGACGAUCGAGUCGAGCGUUGUGGAUUACGUGGAGGUGACGGUCGGGGAGGAGGAUGCGAUCUCAGACCGAUCAGACCGCUGGAGUCAGGCUGCGGCAGAAGGUGUGUCGGAACUGGCUGAAUCAGACCAACAGAGGAUUGAGCAUCA
B7: chr8:118923556:118924373:-|three_prime_utr|ENSG00000164761|control|control|control (ssRNA)
RNA: GGGAGUUCUACAGUCCGACGAUCACUAUAUUUUCCCUUAUUACUGCUUGCAGUAAUUCAACUGGAAAUUAAAAAAAAAAAACUAGACUCCAUUGUGCCUUACUAAAUAUGGGAAUGUCUAACUUAAAUAGCUUUGAGAUUUCACAACAGAGGAUUGAGCAUCA
B8: chr9:130903550:130903651:-|3pUTR|ENSG00000130720|msi1|FALSE|unique (ssRNA)
RNA: GGGAGUUCUACAGUCCGACGAUCAAAUACCCGGCAUUAUGGGGACAGAGAGCAGGGGGCAGACAGCACCCCUGGAGUCCUCCUAGCAGAUCGUGGGGAACGUCAGGUCUCUCUGAGGUCAGGUCUGAGGCCAGUAUCCUCCAGCAACAGAGGAUUGAGCAUCA
B9: chr22:21763623:21763656:-|3pUTR|ENSG00000100030|msi1_unk|total|mutant (ssRNA)
RNA: GGGAGUUCUACAGUCCGACGAUCGUGCUUCCGUCUCCGGAAUCCUUGGGGAGCACUUGUCCACGUCUUUUCUCAUAUCAUGGCCGUCACUAACAUAUAUAAGGUAUGUGCUAUUGGCCCAGCUUUCCGAAAAUGCAGUCAUUUCAACAGAGGAUUGAGCAUCA
B10: chr2:213007362:213008084:-|CDS|ENSG00000030419|control|control|control (ssRNA)
RNA: GGGAGUUCUACAGUCCGACGAUCCAAUGGAGAAGGAGAACAGAUUAGGGCCUUCAAGUGUGAGCACUGCCGAGUCCUUUUCCUAGACCAUGUCAUGUACACCAUUCACAUGGGUUGCCAUGGCUACCGGGACCCACUGGAAUGCAACAGAGGAUUGAGCAUCA
B11: ENSG00000198589:be:win_4801|CDS|ENSG00000198589|bound_else_gene|NA|bound_elsewhere_windowed (ssRNA)
RNA: GGGAGUUCUACAGUCCGACGAUCCGAAGGAGGGACUCAGGCAUUGGGGAAGAAACAGCCACUGGUUUAGGAAGCCAUGUGGAAGUAACUCCUCACACAGCACCUCCUGGUGUCAGUGCAGGCCCAGAUGCAAUCAGCGAGGUGCAACAGAGGAUUGAGCAUCA
B12: ENSG00000198589:be:win_9201|3pUTR|ENSG00000198589|bound_else_gene|NA|bound_elsewhere_windowed (ssRNA)
RNA: GGGAGUUCUACAGUCCGACGAUCACCAUUUUUUCCUGAUCUGUCAUCUUCAUAGCACAACAAAACGAAAUGAUGGAAAUGCUCUUGAGCUCACAACAUUUGUUUUUCUUUUAAAGUAAAUGCAAGUACCAAAGCUCACUACUGCAACAGAGGAUUGAGCAUCA
B13: chr1:235113809:235113910:-|CDS|ENSG00000173726|msi1_unk|total|mutant (ssRNA)
RNA: GGGAGUUCUACAGUCCGACGAUCAGGCUUUUCAGGUUACAUGUAAUUUUAUGUAAAUCUUACAGGUGAAUAUGAGAAGGGCGCCGACCAUCUGACAAAUGCAAUUGCUGUGUGUGGACAGCCACAGCAGUUACUGCAGGUCUUCAACAGAGGAUUGAGCAUCA
B14: chr17:73284618:73284719:-|3pUTR|ENSG00000179604|msi1|total|mutant (ssRNA)
RNA: GGGAGUUCUACAGUCCGACGAUCGGGCACUCGCUCAGUCCCCCGGGGCUUGUUUGUUCUUUAUUAUUGUGUUUAAAUCCUUACCGAGCAAUAUCAGGAUGGUGUUAACCGGUCUGCCUCAGAAUGAGAAUCAAUCCUUUCCGACAACAGAGGAUUGAGCAUCA

The target of the assay is T1, UNK ZnF1-6 (called full-length). The assay is described as follows: nsRBNS (natural sequence RNA bind-n-seq); RBNS binding buffer (assumed for nsRBNS): 25 mM Tris pH 7.5, 150 mM KCl, 3 mM MgCl2, 0.01% Triton X-100, 500 ug/ml BSA, 20 U/ml SUPERase-In, 4 C; UNK is unkempt and MSI1 is Musashi-1; names of the RNAs are library labels; protein concentration not given here; high values mean tight binding.
B1: the binding signal turned out to be 0.483 enrichment R. The molecule B2 had a binding signal of 0.533 enrichment R. The value for B3 was 0.349 enrichment R; that for B4 was 0.357 enrichment R. The value for B5 was 0.339 enrichment R; that for B6 was 1.03 enrichment R.

For the molecule B7, the binding signal was 0.529 enrichment R. For B8, the binding signal was found to be 0.848 enrichment R. The molecule B9 yielded a binding signal of 0.484 enrichment R. The result for B10 reads 1.2 enrichment R. Turning to B11, the binding signal amounted to 0.655 enrichment R.

For the molecule B12, the binding signal stood at 0.481 enrichment R.

As to B13, the binding signal was 0.355 enrichment R. The value for B14 was 0.674 enrichment R.

Source of the values: article PMC12136788.
